Data on 88 compounds can be found in publication PMC4336329 (PLoS ONE, 2015).

Out of some 310,000 compounds screened, about 14,000 (4.5%) showed an effect of 50% or more. Effects have a minus sign here. Some of the results follow.
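Further: peak tail current of the secondary pulse compared with the same well before compound.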

Chain of human ether-à-go-go-related gene (hERG) potassium channel (Q12809 whole entry, looked up): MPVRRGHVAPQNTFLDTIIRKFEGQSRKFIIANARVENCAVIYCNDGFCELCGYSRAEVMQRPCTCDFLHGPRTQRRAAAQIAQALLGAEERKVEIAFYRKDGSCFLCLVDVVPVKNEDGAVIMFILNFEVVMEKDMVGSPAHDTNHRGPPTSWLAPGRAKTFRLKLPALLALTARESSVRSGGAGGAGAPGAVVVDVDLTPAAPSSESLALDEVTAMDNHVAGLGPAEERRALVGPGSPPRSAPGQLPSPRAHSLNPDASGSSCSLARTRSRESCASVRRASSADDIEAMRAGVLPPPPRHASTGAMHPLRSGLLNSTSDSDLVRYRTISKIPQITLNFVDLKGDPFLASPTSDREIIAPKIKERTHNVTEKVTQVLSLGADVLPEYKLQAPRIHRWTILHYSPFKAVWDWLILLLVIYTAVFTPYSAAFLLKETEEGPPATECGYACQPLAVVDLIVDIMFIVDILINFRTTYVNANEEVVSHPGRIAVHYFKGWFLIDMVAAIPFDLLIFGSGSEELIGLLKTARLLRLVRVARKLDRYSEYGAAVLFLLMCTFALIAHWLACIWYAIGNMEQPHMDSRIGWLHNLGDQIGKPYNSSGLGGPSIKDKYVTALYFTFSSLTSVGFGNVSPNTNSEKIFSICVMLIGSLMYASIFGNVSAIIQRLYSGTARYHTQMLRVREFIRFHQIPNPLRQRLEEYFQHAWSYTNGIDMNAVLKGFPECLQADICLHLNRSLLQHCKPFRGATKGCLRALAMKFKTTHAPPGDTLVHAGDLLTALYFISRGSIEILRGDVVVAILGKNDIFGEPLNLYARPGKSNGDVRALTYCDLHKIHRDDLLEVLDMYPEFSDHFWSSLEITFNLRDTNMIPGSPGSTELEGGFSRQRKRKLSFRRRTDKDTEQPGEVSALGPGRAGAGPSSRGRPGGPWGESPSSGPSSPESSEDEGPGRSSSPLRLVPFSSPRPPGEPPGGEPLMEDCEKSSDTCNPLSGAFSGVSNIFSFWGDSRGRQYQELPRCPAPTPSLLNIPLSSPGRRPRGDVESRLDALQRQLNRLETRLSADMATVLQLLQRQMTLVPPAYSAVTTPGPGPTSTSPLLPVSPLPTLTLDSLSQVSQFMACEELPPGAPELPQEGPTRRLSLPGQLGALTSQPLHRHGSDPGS

The test addresses human ether-à-go-go-related gene (hERG) potassium channel (human, UniProt Q12809). Description: primary screen, population patch clamp on CHO cells stably expressing hERG.
For `Cc1oc(-c2ccc(Cl)cc2)nc1CN1CCC(C(=O)NCc2cccs2)CC1`, the “hERG current change (%, negative = inhibition) at 10uM” value was -61.5%.
For the compound `CCCCNC(=O)COc1ccccc1[N+](=O)[O-]`, the “hERG current change (%, negative = inhibition) at 10uM” value was -14%.
For `O=C(NCCCN=C1NS(=O)(=O)c2ccccc21)c1ccccc1Cl`, the “hERG current change (%, negative = inhibition) at 10uM” value was 4.04%.
With `COc1ccc(C/C(C)=N\NC(=O)c2cn(C)c3ccccc23)cc1OC` the figure was 12.7%; with `CCCN1CCN(CCCNC(=O)c2cc3c(=O)[nH]c4ccc(C)cc4c3s2)CC1`, -29.5%.
As to `CC(=NCc1ccccc1)C1=C(O)COC1=O`, the “hERG current change (%, negative = inhibition) at 10uM” value turned out to be 11.8%.
For the compound `CCn1c(CNC(=O)c2ccccc2F)nnc1SCCOc1ccccc1`, the “hERG current change (%, negative = inhibition) at 10uM” value is listed as -7.93%.
On to `Cc1ccc(NC(=O)Nc2cccc3ccccc23)cc1`, for which the “hERG current change (%, negative = inhibition) at 10uM” value came to 19.5%.
Take `O=C(O)c1cc(-c2ccccc2)nn1CC1CC(c2cccnc2)=NO1` (stereo not shown): the “hERG current change (%, negative = inhibition) at 10uM” value is on record as 6.86%.
As to `COc1ccccc1NC(=O)Cn1nnc(C(=O)NCc2cccs2)c1N`, the “hERG current change (%, negative = inhibition) at 10uM” value is given as 3.37%.
As to `CCOC(=O)c1c(C2CC2)csc1NC(=O)COC(=O)CCS(=O)(=O)c1ccc(C)cc1`, the “hERG current change (%, negative = inhibition) at 10uM” value stood at 5.79%.
Consider `OCCOCCn1c(C2CCCN2c2nc(-c3ccc(F)cc3)cs2)nc2cc(Cl)c(Cl)cc21` (stereo not shown), for which the “hERG current change (%, negative = inhibition) at 10uM” value is -28.7%.
With `COc1ccccc1CNC(=O)COC(=O)CSc1ccc(Cl)cc1` the figure was -11%; with `CC(C)COc1ccc(C(=O)Nc2ccc(NC(=O)c3ccco3)cc2)cc1`, 10%.
With `O=C1c2ccsc2SCCN1Cc1ccc(Cl)cc1Cl`, the “hERG current change (%, negative = inhibition) at 10uM” value is given as -15.3%.
For `COc1ccc(C(CC(=O)Nc2ccccc2OC)n2cccc2)cc1` (stereo not shown), the “hERG current change (%, negative = inhibition) at 10uM” value is given as -16.2%.
With `Cc1nnc(C)n1/N=C/c1ccc(C(C)C)cc1`, the “hERG current change (%, negative = inhibition) at 10uM” value was -20.7%.
With `C(=C\c1ccccc1)/C=N/Nc1nncc(-c2ccccc2)n1` the figure was -22.1%; with `Cc1ccc(C(=O)N/N=C\C=C\c2ccccc2[N+](=O)[O-])cn1`, -0.634%.
With `C=Cn1cc[n+](CC(=O)c2ccc(Cl)c(Cl)c2)c1.[Br-]` the figure was 0.216%; with `O=C1/C(=C/c2ccc(O)c([N+](=O)[O-])c2)SC(=S)N1Cc1ccccc1`, 11.1%; with `Cc1occc1C(=O)N/N=C/c1ccc(Cl)c([N+](=O)[O-])c1`, 7.04%.
With `CC(=O)N1CCC(=NNC(=O)CSc2cc(C)c(Br)cc2C)CC1`, the “hERG current change (%, negative = inhibition) at 10uM” value stood at 6.38%.
With `Cc1cc(C)cc(NC(=O)CSc2ncc(S(=O)(=O)c3ccccc3)c(=O)[nH]2)c1` the figure was 13.6%.
Then `CCN1CCN(Cc2cc(=O)oc3cc4c(cc23)CCC4)CC1`, with -29.7%; and `CCCCCn1c(=O)c(C(=O)Nc2ccccc2N)c(O)c2ccccc21`, with 21.4%.
As to `CNC(=O)CC1C(=O)N(c2ccc(Cl)cc2)C(=S)N1CCc1ccc(OC)c(OC)c1` (stereo not shown), the “hERG current change (%, negative = inhibition) at 10uM” value was -15.9%.
Turning to `CCOC(=O)c1c(NC(=O)c2c(-c3ccccc3)noc2C)sc(C)c1-c1ccccc1`, the “hERG current change (%, negative = inhibition) at 10uM” value was -8.32%.
Regarding `COc1ccc(N2CS(=O)CC2=O)cc1` (stereo not shown), the “hERG current change (%, negative = inhibition) at 10uM” value amounted to 9.7%.
For the compound `CCN(C(=O)CSc1nc(-c2cccs2)nc2ccccc12)C1CCS(=O)(=O)C1` (stereo not shown), the “hERG current change (%, negative = inhibition) at 10uM” value was -95.6%.
As for `Oc1c(Br)cc(Br)cc1/C=N/Nc1ccc(Cl)nn1`, the “hERG current change (%, negative = inhibition) at 10uM” value is 23.4%.
For the compound `Cc1cc(C)n2c(SCC(=O)N(CC(C)C)c3c(N)n(CC(C)C)c(=O)[nH]c3=O)nnc2n1`, the “hERG current change (%, negative = inhibition) at 10uM” value worked out at 29.8%.
As for `CC(C)C[C@H](NC(=O)c1[nH]cnc1C(=O)N[C@@H](Cc1ccccc1)C(=O)OC(C)(C)C)C(=O)OCc1ccccc1`, the “hERG current change (%, negative = inhibition) at 10uM” value was 7.3%.
`COc1ccc([C@H]2CC(=O)C=C(c3cccc(OCc4ccccc4)c3)C2)cc1`: the “hERG current change (%, negative = inhibition) at 10uM” value is reported as 10.8%.
With `N#CC(C#N)=NNc1ccc(S(N)(=O)=O)cc1`, the “hERG current change (%, negative = inhibition) at 10uM” value was 6.28%.
For the compound `Nc1c(C(=O)O)cnc2c(-c3ccc(Cl)cc3)cnn12`, the “hERG current change (%, negative = inhibition) at 10uM” value was found to be 45.3%.
For the compound `COc1ccc(NC(=O)CSc2nccn2-c2ccccc2)cc1`, the “hERG current change (%, negative = inhibition) at 10uM” value is on record as -17.8%.
For `COc1cccc(CC(=O)Nc2ccccc2C(=O)N2CCOCC2)c1`, the “hERG current change (%, negative = inhibition) at 10uM” value was 15.3%.
For the compound `CCOC(=O)c1[nH]c2ccccc2c1NC(=S)Nc1cc(C)ccc1C`, the “hERG current change (%, negative = inhibition) at 10uM” value is given as -1.47%.
As to `CC(C(=O)Nc1ccc([N+](=O)[O-])cc1Cl)N1CCN(S(=O)(=O)c2cccs2)CC1` (stereo not shown), the “hERG current change (%, negative = inhibition) at 10uM” value is -40.2%.
With `CCCn1c2ccccc2c2cnn(CC(=O)NCCCN3C(C)CCCC3C)c(=O)c21` (stereo not shown) the figure was -41.8%.
`O=C(C(=O)N1CCN(c2ccccc2F)CC1)c1c[nH]c2ccccc12`: the “hERG current change (%, negative = inhibition) at 10uM” value is -26%.
With `COc1ccc(NC(=O)C(Cc2cc(C)cc(C)c2)C(C)C(=O)O)cc1` (stereo not shown) the figure was 0.845%; with `CC(C)OC(=O)c1cc2c(ccn2C)n1CC(=O)N(Cc1ccccc1)c1ccccc1`, 12.2%.
Take `O=C(COc1coc(CN2CCN(c3ccccc3)CC2)cc1=O)NC1CCCCC1`: the “hERG current change (%, negative = inhibition) at 10uM” value was -46.1%.
Consider `O=C(OCc1cccc([N+](=O)[O-])c1)c1cccnc1`, for which the “hERG current change (%, negative = inhibition) at 10uM” value is recorded as -19.4%.
Regarding `CC(=O)C1=C(O)C(=O)N(CCc2c[nH]c3ccccc23)C1c1ccc(O)cc1` (stereo not shown), the “hERG current change (%, negative = inhibition) at 10uM” value was found to be 6.64%.
As to `O=C(NCCc1ccccc1)C(=O)c1c(-c2ccccc2)[nH]c2ccccc12`, the “hERG current change (%, negative = inhibition) at 10uM” value is 3.69%.
For `Cc1ccc(S(=O)(=O)/C(C#N)=C/c2ccccc2OCc2ccccc2)cc1`, the “hERG current change (%, negative = inhibition) at 10uM” value was 4.81%.
For `CCN(C(=O)CSc1cc(C)c2cccc(C)c2n1)C1CCS(=O)(=O)C1` (stereo not shown), the “hERG current change (%, negative = inhibition) at 10uM” value is recorded as 16.3%.
With `O=C(O)CCSCC(=O)c1ccc2c(c1)OCCO2`, the “hERG current change (%, negative = inhibition) at 10uM” value is 9.15%.
With `CC(C)(C)c1cc(CCC(=O)NCCc2ccccn2)cc(C(C)(C)C)c1O`, the “hERG current change (%, negative = inhibition) at 10uM” value stood at 4.17%.
Then `COc1ccc(NC(=O)CSc2nc3ccccc3c(=O)[nH]2)cc1S(N)(=O)=O`, with -0.505%; and `COc1ccc(NC(=O)C2CCN(S(=O)(=O)c3c(C)nn(C)c3C)CC2)cc1`, with 15.7%.
With `COc1ccc(Cn2nnnc2CN2CCC(O)(c3ccc(F)cc3)CC2)cc1` the figure was -14.5%; with `CC(=O)c1cccc(NC(=O)Nc2c(C)nn(C)c2C)c1`, 24.4%.
For `CC1CCC/C(=N\NC(=O)COc2ccccc2Cl)C1` (stereo not shown), the “hERG current change (%, negative = inhibition) at 10uM” value came out at 12.3%.
Then `COc1ccc(N(CC(=O)NCc2cccs2)S(=O)(=O)c2c(C)n[nH]c2C)cc1`, with -3.7%.
Turning to `Cc1cccc(-n2nnnc2SCC(=O)NCC2(N3CCOCC3)CCCCC2)c1C`, the “hERG current change (%, negative = inhibition) at 10uM” value is -57.9%.
In the case of `Fc1ccc(C2CC(c3ccco3)=NN2c2ccccc2)cc1` (stereo not shown), the “hERG current change (%, negative = inhibition) at 10uM” value came out at 7.8%.
Take `C/C(=N\NC(=S)Nc1c(C)cccc1C)c1ccc(O)cc1`: the “hERG current change (%, negative = inhibition) at 10uM” value is given as -9.41%.
With `Nc1c(C(=O)Nc2ccc(Cl)cc2)oc2ccccc12` the figure was -3.23%.
With `COc1ccc(Oc2c(Cl)cnn(-c3ccccc3)c2=O)cc1` the figure was -18.3%; with `O=C(Cn1cccn1)N1CCCC(N2CCN(Cc3ccc4c(c3)OCO4)CC2)C1` (stereo not shown), 3%; with `Cc1csc(=O)n1CC(=O)Nc1ccc(Cl)cc1F`, -7.74%.
For the compound `Cc1ccc(S(=O)(=O)Nc2cccc(NC(=O)CN3CCCCC3)c2)cc1.O=C(O)C(=O)O`, the “hERG current change (%, negative = inhibition) at 10uM” value was -14.7%.
For `Cc1nc(S(=O)(=O)c2cccc(Cl)c2)nc2c1CCC2`, the “hERG current change (%, negative = inhibition) at 10uM” value is listed as -3.94%.
As for `O=C1c2ccc([N+](=O)[O-])cc2C(=O)N1c1ccc(Cl)cn1`, the “hERG current change (%, negative = inhibition) at 10uM” value is 39.2%.
With `Cc1cc(-c2ccc(S(=O)(=O)N(C)Cc3ccccc3)cc2)on1`, the “hERG current change (%, negative = inhibition) at 10uM” value is on record as 10.4%.
Turning to `O=C(Nc1ccc(N2CCCC2)cc1)c1cccc(Cl)c1`, the “hERG current change (%, negative = inhibition) at 10uM” value is 27.1%.
With `CCn1cc(C(=O)Nc2ccc(F)c(F)c2)cn1`, the “hERG current change (%, negative = inhibition) at 10uM” value was 7.43%.
In the case of `COc1ccc(CNS(=O)(=O)c2cc(-c3cc(C)no3)ccc2C(C)C)cc1`, the “hERG current change (%, negative = inhibition) at 10uM” value is -14.9%.
As to `O=C([O-])CC1S/C(=N/N=C/C=C/c2ccccc2)NC1=O.[Na+]` (stereo not shown), the “hERG current change (%, negative = inhibition) at 10uM” value came to 5.14%.
Then `CNC(=S)N(CCc1ccccc1)Cc1cc2cc(OC)c(OC)cc2[nH]c1=O`, with -22.3%.
In the case of `CC1CCN(c2ccc3nnc(CCC(=O)Nc4ccc(F)c(F)c4)n3n2)CC1`, the “hERG current change (%, negative = inhibition) at 10uM” value was found to be 5.64%.
Regarding `CC(C)n1nc(C(=O)Nc2nc3ccccc3[nH]2)c2ccccc2c1=O`, the “hERG current change (%, negative = inhibition) at 10uM” value was -35.8%.
On to `CCCCc1cc2c(s1)CCCC/C2=N/O`, for which the “hERG current change (%, negative = inhibition) at 10uM” value is listed as -8.82%.
For `O=C(c1ccc(F)cc1)n1cc(C(=S)N2CCOCC2)c2ccccc21`, the “hERG current change (%, negative = inhibition) at 10uM” value came to 5.62%.
In the case of `COC(=O)N1C(=O)[C@](c2ccc(Cl)cc2)(C(C)C)N1C(=O)OC`, the “hERG current change (%, negative = inhibition) at 10uM” value was determined as 7.07%.
Then `CCC(C)(C)C1CCC(=NNC(=O)c2ccoc2C)CC1` (stereo not shown), with 6.38%.
Turning to `C=CC(O)(C#CCN(CC)CC)c1ccccc1` (stereo not shown), the “hERG current change (%, negative = inhibition) at 10uM” value is recorded as -12.6%.
Consider `C/C(=N/NC(=O)c1cc(C(C)C)[nH]n1)c1cccs1`, for which the “hERG current change (%, negative = inhibition) at 10uM” value was 7.16%.
Regarding `CCOC(=O)[C@@H]1[C@H]2COc3ccccc3[C@@H]2N2C(=O)N(c3ccc(C(F)(F)F)cc3)C(=O)[C@]12C`, the “hERG current change (%, negative = inhibition) at 10uM” value is listed as -25.3%.
Then `CSCCCNC(=S)N(C)CC(=O)Nc1ccc(C)cc1`, with 22.1%; and `CC1CCc2sc(C(=O)NCc3ccc(F)cc3)cc2C1` (stereo not shown), with -7.02%; and `O=C(Nc1ccc2c(c1)OCCO2)C(=O)NC1CC1`, with 7.97%.
Take `CC(NCc1cccn1C)c1ccccc1.Cl` (stereo not shown): the “hERG current change (%, negative = inhibition) at 10uM” value is reported as -7.72%.
For the compound `Cc1ccc(NC(=S)N2CCN(S(C)(=O)=O)CC2)cc1C`, the “hERG current change (%, negative = inhibition) at 10uM” value is on record as 11.3%.
